# Results taken from publication PMC12136788.
# The list shows a part of the results.
# T1: UNK ZnF1-3 (human, UniProt Q9C0B0 31-174)
# T1 sequence: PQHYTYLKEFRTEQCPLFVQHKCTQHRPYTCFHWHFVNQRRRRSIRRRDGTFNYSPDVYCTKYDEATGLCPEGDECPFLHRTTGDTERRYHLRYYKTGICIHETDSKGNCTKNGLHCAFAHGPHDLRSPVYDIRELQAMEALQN
# B1: chr1:75481486:75481487:+_ENSMUSG00000051703_ENSMUST00000113575|mus_mus|FALSE|FALSE (ssRNA)
# RNA: GGGAGUUCUACAGUCCGACGAUCGGGUCCCGAGCAGGCUGUCAGUGGUCCCCGGGACCCAUACUCAUAGUCCGUGUCUGUAGGGGAGGCCAUGAAGGAACUCAGAGAGCUCCCAGUCUGCCGGUCCCGGAAGCUCUGGAUGUACAACAGAGGAUUGAGCAUCA
# B2: chr3:150289932:150289933:+_ENSG00000144895_ENST00000460851|hu_hu|hu_hu_hu_mus_False|58_108 (ssRNA)
# RNA: GGGAGUUCUACAGUCCGACGAUCCUUGUAGUUUUUCACAUCCCAUACUUCCAUUUGUCCUCGAAGAUUUCCAAAUCCAGCUAAUACUAAUAUAUGUCCAUGAGGGCUAUAGAAGGCUGCGUUGCGAGGACCAGUCCCAAAGUCCAACAGAGGAUUGAGCAUCA
# B3: chr5:21408736:21408737:-_ENSMUSG00000042453_ENSMUST00000161356|mus_hu|mus_mus_mus_hu_False|28_108 (ssRNA)
# RNA: GGGAGUUCUACAGUCCGACGAUCGUUGACAGCAUUAUAGAUGGUGGCUUCAUGGAACUGGAAAGGGGAGCAGCCAAUGCUGUUAGAAGAGGAAGGAAGGCACUGGGUCUGCACGAGCUGCCAGGAAUCCGAUCUUGCAUCCUUCAACAGAGGAUUGAGCAUCA
# B4: chr10:126663389:126663390:-_ENSMUSG00000074657_ENSMUST00000099172|mus_hu|FALSE|FALSE (ssRNA)
# RNA: GGGAGUUCUACAGUCCGACGAUCGAGGAGCCUUUGAACAGUCAGUCCUAAGAGACGCUGAGACUUCUUCCACCAAAAAAAAAAAAAAAAAAAAAUGCAAACUGCCCAGGUCUGCAUUACUUUAUUUUUUAUAUUGGGGUUCUACAACAGAGGAUUGAGCAUCA
# B5: chr11:122930308:122930309:-_ENSG00000109971_ENST00000227378|hu_mus|FALSE|FALSE (ssRNA)
# RNA: GGGAGUUCUACAGUCCGACGAUCCUUGGGGAUUCUGGUAGAACCACCCACCAAGACAAUAUCAUGGAUCUGUGACUUGUCCAGCUUGGCAUCUCGAAGGGCCUUCUCUACAGGGUCCAGUGUGCCACGGAACAGGUCAGCAUUCAACAGAGGAUUGAGCAUCA
# B6: 61429435_61429555_80_3pUTR_ENSG00000104388_ENST00000262646|human|control|control (ssRNA)
# RNA: GGGAGUUCUACAGUCCGACGAUCGCCGAACAAUAACAGCCGCCGCGGCGCCUCCGCCCCGCCUCCGCGCCGACCCGGAAGUUCUGCGGCCGCCGGCGCCGCCGGAGGAAAGGGGAGGAGCCCCGCACGCUGGCCCAGCCCUGCCAACAGAGGAUUGAGCAUCA
# B7: 63008542_63008662_3152_3pUTR_ENSG00000120063_ENST00000439174|human|control|control (ssRNA)
# RNA: GGGAGUUCUACAGUCCGACGAUCCUAGAUGUAGAACUAUUCAAACACGCAUGAAUGAUACCAUGAUACCACGAACAUGCACGAUACCAUGAACUUGCAUCACGGUGCCGGGCUACGUAUGUGUAGCUCAUGGAUUACCAUGGCCAACAGAGGAUUGAGCAUCA
# B8: chr11:106643937:106643938:-_ENSMUSG00000020719_ENSMUST00000021062|mus_hu|FALSE|FALSE (ssRNA)
# RNA: GGGAGUUCUACAGUCCGACGAUCUAGGUGUAAAGAAAGUGUAUGCUGUGCCUGUUUUGGUACUGCGAGCAGUUCUUCCAAUUCGAUGAAUAUAAUCCUCUGAGGAGUUAGGGUAGUCAUAAUUGAUGACAAAUUUCACAUCUUCAACAGAGGAUUGAGCAUCA
# B9: chr7:141450121:141450122:+_ENSG00000106028_ENST00000265304|hu_mus|hu_hu_hu_mus_True|1_38 (ssRNA)
# RNA: GGGAGUUCUACAGUCCGACGAUCUCAUCCGUUCUAUGCCUUUUCUUUUGUCUGGUCACUCAGAAAUAUAAUGUUAUCAGCUAUGAUUGUUGUUGCUUGUCGCCUCACAUUGUUUUUAUCCAUGUACUCGCCAUAGUCUAUUUUCAACAGAGGAUUGAGCAUCA
# B10: chr6:39351226:39351227:-_ENSMUSG00000029922_ENSMUST00000031985|mus_mus|FALSE|FALSE (ssRNA)
# RNA: GGGAGUUCUACAGUCCGACGAUCGACAAAGUUAGAUGUGAUCCGGCAUUCGGGGCAGGACUUUAUGAUCUUGCUCUCAAAUUGUUUAGCACUUCUCCACUUGCGAAUACACUUGAGACAGUAGGUGUGGUUGCAGUUGGAGAGCAACAGAGGAUUGAGCAUCA
# B11: chr7:56126341:56126342:+_ENSG00000146731_ENST00000540286|hu_mus|hu_hu_hu_mus_True|68_78 (ssRNA)
# RNA: GGGAGUUCUACAGUCCGACGAUCCAUGUUUCUCCUCUUGGCUCUGCGCAGAGCUACUAUGCCUUCUUUUGAAAGAGCAUCUAAGGAAAAGGGGUCAAUCCCCUUUUGAUUAAUAACGACAAAUCCUUUAUCUGAGUCACCACACAACAGAGGAUUGAGCAUCA
# B12: 35988352_35989769_1864_CDS_ENSMUSG00000027710_ENSMUST00000011492|mouse|control|control (ssRNA)
# RNA: GGGAGUUCUACAGUCCGACGAUCCAGGUUUUCUGGAGCGUUCUUGUCCAGCUGAGACAGGCUGAAGAGAUUCUGGAAAUAAGCUUCCACACAGAACAUGUUGGCCAACAGAACCUCGUGAUCAUGAUUCCUGAGCCCAAUUCUCAACAGAGGAUUGAGCAUCA
# B13: chrX:20185780:20185781:-_ENSG00000177189_ENST00000379565|hu_hu|FALSE|FALSE (ssRNA)
# RNA: GGGAGUUCUACAGUCCGACGAUCUUUAGUUAUAGUGAACAGGACAGCACUGGCCUCUCGUUCAGAGAAAAAUUUUUGUCUAAGAAUUUUAUCCAGCAAUUCACCUCCUUUCAUAAGUUCUGUUACUACAUACACAUACUUUCCCAACAGAGGAUUGAGCAUCA
# B14: chrX:153667120:153667121:+_ENSG00000203879_ENST00000447750|hu_mus|FALSE|FALSE (ssRNA)
# RNA: GGGAGUUCUACAGUCCGACGAUCAUUCCAGUCUCGGCCCCGGCCCAUUGAUUCAGGGGGCCCUUCCAGUAUCUGAAAGCGCUUAUAUAGCUCCUCCAGGGGUGUGAUGGAAGAGCUCUCACCCCCAUAGUAGGGGUUUCGGUCCAACAGAGGAUUGAGCAUCA
# B15: chr3:120123814:120123815:-_ENSG00000163430_ENST00000295633|hu_mus|FALSE|FALSE (ssRNA)
# RNA: GGGAGUUCUACAGUCCGACGAUCCUGCUCCACGAAUUUCAGGAAUUCACUGGAGUCCAGGUGAGAGUCGCCAUUAUCAAAGCUCUUAAAGUACUUGUCUAGGAUCUCACUGUAGUUACUGCCUUUAGAGAACCAGCCAUCUGGCAACAGAGGAUUGAGCAUCA
# B16: chr11:46405157:46405158:+_ENSG00000110492_ENST00000395566|hu_hu|hu_hu_hu_mus_False|1_8 (ssRNA)
# RNA: GGGAGUUCUACAGUCCGACGAUCCCCUCCCCACUUUGGGCACUUGGUGUGGGCGUGAGAGGACAGGCGUGAUUGACAGAGCUGACAGGAAGACAAAAGGCACUGGUGGGUUAUAUCUUGGGCCUGUGAGAGGGAGGGCGUGGGCAACAGAGGAUUGAGCAUCA
# B17: chr16:45143845:45143846:-_ENSMUSG00000022664_ENSMUST00000023344|mus_hu|FALSE|FALSE (ssRNA)
# RNA: GGGAGUUCUACAGUCCGACGAUCCACUUAGAUCUCGGAUCCUUUCUUGCCUAGGUGCGUAUUCCGGAACUUGAGGCUUGCUGGCAUUAUAAAUAAAUAUAGAGAGAAGGACUGAUGGGGCUUCCAAGAAAAAUUCCAGGGAGGCAACAGAGGAUUGAGCAUCA
# B18: chr16:32019706:32019707:-_ENSMUSG00000022781_ENSMUST00000023467|mus_mus|motif|central (ssRNA)
# RNA: GGGAGUUCUACAGUCCGACGAUCCCCUUUCAGUUUAGGCUCUGAACUGAAACACUCCGCACACCAGCCGGUCCUGACUUCGGUAGGAAGCUAAGCAUGUCAAGCUCCUUUCCCAAUGUAAAGAGCUACAUCAAUCAUUUUAUCCAACAGAGGAUUGAGCAUCA
# B19: chr17:57724784:57724785:+_ENSG00000141367_ENST00000269122|hu_hu|FALSE|FALSE (ssRNA)
# RNA: GGGAGUUCUACAGUCCGACGAUCUUUCAUUUCAAUGUUAAAAAUCUGAAGAGUUUUCCCAGCUUUCAGUGCAAUUACUUUGCUAGCUGGAUUCAUGAUGGCGCUGUCUGCUGAAAUUGGUCUUCGAAUUGGAUUACUUGGGUCCAACAGAGGAUUGAGCAUCA
# B20: chr3:176740097:176740098:-_ENSG00000177565_ENST00000430069|hu_mus|hu_hu_hu_mus_True|48_68 (ssRNA)
# RNA: GGGAGUUCUACAGUCCGACGAUCUGUUUUGUAUACCACAAAAGGAGGCACUUUCAGUAUCUGCAAAAGGUAUUUAAUCCUAAAACAUACUUACCUAGAGGAUAACUCAGGAAAACAAUCUGUUACACUCUAAGACCUACUCCACAACAGAGGAUUGAGCAUCA
# B21: chr11:44378942:44378943:+_ENSMUSG00000019189_ENSMUST00000019333|mus_hu|FALSE|FALSE (ssRNA)
# RNA: GGGAGUUCUACAGUCCGACGAUCUUUAAAUUUAUUAAGACAUUCAGCUAUGUCUGUCAGUCUACAUCCAAAUUUGCUACUAAAAAUAAAAUAAAGUCACAUCCCACAUUAGGAAUACCGAGGUCUGAAAAACACUUUUUGAGCCAACAGAGGAUUGAGCAUCA
# B22: 88249743_88250314_1579_CDS_ENSMUSG00000026234_ENSMUST00000027438|mouse|control|control (ssRNA)
# RNA: GGGAGUUCUACAGUCCGACGAUCUUUCUCUCCAGUAUAGUAGAGUGAAACAGAUCGUCCAUCAAUUUCUGCCCCCUGCUUUUCUUCCAAAUUUUUCUCUGCAUCAGCUUCAGACUUAAAUUCAAUAUAAGCAAUCCCUUUACUCAACAGAGGAUUGAGCAUCA
# Target: T1, UNK ZnF1-3
# Experiment: nsRBNS (natural sequence RNA bind-n-seq); RBNS binding buffer (assumed for nsRBNS): 25 mM Tris pH 7.5, 150 mM KCl, 3 mM MgCl2, 0.01% Triton X-100, 500 ug/ml BSA, 20 U/ml SUPERase-In, 4 C; UNK is unkempt and MSI1 is Musashi-1; names of the RNAs are library labels; protein concentration not given here; high values mean tight binding
row,Binder,binding signal
1,B1,1.81 enrichment R
2,B2,1.26 enrichment R
3,B3,1.63 enrichment R
4,B4,1.15 enrichment R
5,B5,0.422 enrichment R
6,B6,2.04 enrichment R
7,B7,0.438 enrichment R
8,B8,2.22 enrichment R
9,B9,0.376 enrichment R
10,B10,0.485 enrichment R
11,B11,1.3 enrichment R
12,B12,0.942 enrichment R
13,B13,1.15 enrichment R
14,B14,0.325 enrichment R
15,B15,0.935 enrichment R
16,B16,1.91 enrichment R
17,B17,2.36 enrichment R
18,B18,1.01 enrichment R
19,B19,0.693 enrichment R
20,B20,0.812 enrichment R
21,B21,1.79 enrichment R
22,B22,1.11 enrichment R
